Assay results: PubChem BioAssay AID1347430 (National Center for Advancing Translational Sciences (NCATS), 2020)
In all, about 91,000 compounds went through this assay and about 130 (0.14%) were called active. The inconclusive results got no clear call from the source; some entries with a clear call stand among them for comparison. Calls follow the shape of the dose curve; as a rule, active = well fitted inhibition curve with a large enough effect; inconclusive = small, poorly fitted or top-dose-only effect; inactive = flat fitted curve, though single readings scatter. A potency beside an inconclusive call is a rough fit, not a confirmed value.
Also: nearly all actives have a fitted effect of over 65% in size.
Potency is read from the fitted curve at half-maximal effect; tags tell the direction and shape of the fitted curve.

The compounds below were run on Uracil-DNA glycosylase (assay: Primary qHTS assay for inhibitors of Activation Induced Cytidine Deaminase (AID): UDG Counterscreen signal). Conditions: FRET deamination/UDG coupled assay, UDG read, 4 h; series mostly up to 115 µM.
With `COc1ccc(OCC(=O)Nc2ccc3c(C)cc(=O)oc3c2)cc1` the Potency was “inactive”. `CCCCSCCCNC(=O)C1CCN(Cc2nc(-c3ccc(CC)cc3)oc2C)CC1` was tested, and the Potency was active: 89.1 µM. For `Cc1ccc(NC(=O)C2CC2)cc1NC(=O)C1(C)CC1(Cl)Cl` (configuration not stated), the Potency was “inactive”. In the case of `COc1ccc(-c2c(C#N)c(SCC(=O)Nc3ccc(C)c(C)c3)nc(C)c2C(=O)Nc2ccc(Cl)cc2)cc1`, the Potency is reported as inconclusive: 79.4 µM [inhibitor, partial curve, poor fit]. With `O=C(CC1C(=O)OCCN1Cc1ccccc1)Nc1cccc(Cl)c1` (configuration not stated) the Potency was inconclusive: 100 µM [inhibitor, single point]. In the case of `CCc1cccc(C)c1NC(=O)c1cc(S(=O)(=O)N(C)Cc2ccccc2)ccc1F`, the Potency is reported as inconclusive: 50.1 µM [inhibitor, partial curve, poor fit]. For `CCc1ccc(-c2nc(CN3CCC(C(=O)NCCc4ccc(C)cc4)CC3)c(C)o2)cc1`, the Potency was inconclusive: 89.1 µM [inhibitor, single point]. For `CCOC(=O)Cn1c(C2CC(=O)N(c3ccc(C)cc3)C2)nc2ccccc21` (configuration not stated), the Potency was inconclusive: 100 µM [inhibitor, single point]. `CCOC(=O)c1cc(C)nc2c1c(=O)n(Cc1nc(-c3ccc(C(C)C)cc3)oc1C)c(=O)n2C` was tested, and the Potency was inconclusive: 89.1 µM [inhibitor, single point]. For `O=c1[nH]c(C2CCCN(S(=O)(=O)c3ccccc3)C2)nc2c1nnn2Cc1ccccc1Br` (configuration not stated), the Potency was inconclusive: 100 µM [inhibitor, single point]. With `CCCCN(CC)CCCNC(=O)c1cn(C)c(=O)c2c1c1ccccc1n2C` the Potency was inconclusive: 89.1 µM [inhibitor, partial curve]. In the case of `Cc1ccc(OCCn2c(C3CC(=O)N(Cc4ccc(F)cc4)C3)nc3ccccc32)c(C)c1` (configuration not stated), the Potency is reported as inconclusive: 89.1 µM [inhibitor, partial curve, poor fit]. `O=S(=O)(NCC(c1ccccc1)N1CCc2ccccc21)c1ccc(Cl)cc1` (configuration not stated) was tested, and the Potency was inconclusive: 89.1 µM [inhibitor, partial curve, poor fit]. For `CC(=O)N1CCCC1c1nc2ccccc2n1Cc1cccc(C)c1` (configuration not stated), the Potency was inconclusive: 100 µM [inhibitor, single point]. With `CC1(C)Cc2c(sc(NC(=O)C(N)=O)c2C#N)CO1` the Potency was “inactive”. `CCc1nnc(NC(=O)CSc2nccn2Cc2ccc(Cl)cc2)s1` was tested, and the Potency was inconclusive: 50.1 µM [inhibitor, partial curve, poor fit]. For `O=C(NCc1cccc(Cl)c1)c1cnc(N2CCOCC2)c2ccccc12`, the Potency was inconclusive: 89.1 µM [inhibitor, single point]. With `CCc1ccccc1S(=O)(=O)Cc1ccc(C(=O)NCCc2ccc(Cl)cc2)o1` the Potency was inconclusive: 56.2 µM [inhibitor, partial curve, poor fit]. `CC(=O)c1ccc(OCCC(=O)OCc2ccc(C#N)cc2F)cc1` was tested, and the Potency was “inactive”. For `CC1(C)CC(=O)C/C(=N/NC(=O)C2CCCCC2)C1`, the Potency was “inactive”. With `CCOC(=O)c1c(NC(=O)c2cc(-c3cccc(Cl)c3)on2)sc(C)c1C` the Potency was inconclusive: 100 µM [inhibitor, single point]. With `CCOc1ccc(CCNC(=O)c2c(C)oc3ncn(CC(C)C)c(=O)c23)cc1OCC` the Potency was inconclusive: 100 µM [inhibitor, single point]. With `CC(=O)N1CCc2c(sc3c2c(=O)n(-c2ccccc2)c(=O)n3CC(=O)Nc2cc(C)cc(C)c2)C1` the Potency was inconclusive: 79.4 µM [inhibitor, partial curve, poor fit]. For `CCc1ccc(NC(=O)CSc2nc(C)c(C(=O)Nc3ccccc3)c(-c3ccc(OC)c(OC)c3)c2C#N)cc1`, the Potency was inconclusive: 70.8 µM [inhibitor, partial curve, poor fit]. In the case of `CC(=O)c1ccc(N2CCN(C(=O)c3nn(Cc4ccccc4)c(=O)c4ccccc34)CC2)c(F)c1`, the Potency is reported as “inactive”. `Cc1ccc(-c2cc(C(=O)O)c3ccccc3n2)cc1` was tested, and the Potency was “inactive”. With `Cc1cccc(C2(c3cccc(C)c3)CC2C(=O)NC(C)(C)C)c1` (configuration not stated) the Potency was “inactive”. For `O=C(CSc1nc2ccccc2n1Cc1cccc(F)c1)NCc1ccccc1`, the Potency was inconclusive: 89.1 µM [inhibitor, single point]. With `CN(C)c1ccc(C(CNC(=O)c2ccccc2)N2CCc3ccccc32)cc1` (configuration not stated) the Potency was inconclusive: 79.4 µM [inhibitor, partial curve, poor fit]. For `O=C(O)c1ccc(-c2ccc(CNCc3ccccc3)o2)cc1`, the Potency was “inactive”. With `CNC(=O)c1ccc2c(c1)CCCN2C(=O)c1ccc(Cl)cc1` the Potency was “inactive”. With `Cc1ccc(CNC(=O)Cc2ccc(NC(=O)N3CCSc4ncccc43)cc2)cc1` the Potency was inconclusive: 89.1 µM [inhibitor, single point]. `CCn1cc2nc(SCc3ccc(F)cc3)n(CCc3ccccc3)c(=O)c2n1` was tested, and the Potency was “inactive”. `CCC(=O)Nc1ccccc1-c1nc2ccccc2n(C(CC)C(=O)Nc2cccc(Cl)c2)c1=O` (configuration not stated) was tested, and the Potency was inconclusive: 89.1 µM [inhibitor, partial curve, poor fit]. For `Cc1c(C(=O)N(C)C)sc2c1c(=O)n(-c1ccc(F)cc1)c(=O)n2Cc1ccccc1C#N`, the Potency was active: 89.1 µM. `CCCNC(=O)c1cnc2c(-c3ccc(OCC)c(OCC)c3)c(C)nn2c1-c1ccccc1` was tested, and the Potency was inconclusive: 100 µM [inhibitor, partial curve, poor fit]. `Cc1nc(Oc2ccccc2)c2c3c(sc2n1)CCCC3` was tested, and the Potency was inconclusive: 89.1 µM [inhibitor, single point]. With `CCOC(=O)/C(C#N)=C/c1ccc(-c2ccc(C)cc2)o1` the Potency was inconclusive: 89.1 µM [inhibitor, partial curve, poor fit]. With `CCOC(=O)c1c(C)n(-c2ccccc2)c2ccc(OC(=O)c3ccccc3NC(=O)C(C)(C)C)cc12` the Potency was “inactive”. `O=C(NCc1ncc(-c2ccccc2)o1)c1cccc(F)c1` was tested, and the Potency was “inactive”. In the case of `Fc1ccc(C(c2nnc(-c3ccccc3)o2)N2CCN(c3cccc(Cl)c3)CC2)cc1` (configuration not stated), the Potency is reported as inconclusive: 89.1 µM [inhibitor, single point]. In the case of `COc1ccc(NC(=O)c2c(C)oc3ccc(O)c(CN4CCC(C)CC4)c23)cc1Cl`, the Potency is reported as “inactive”.
